Source: publication PMC4336329 (PLoS ONE, 2015)
Hit rate of the full screen: of about 310,000 compounds, about 2,200 (0.71%) showed an effect of 50% or more. Effects have a minus sign here. The list shows a part of the results.

These molecules were tested against human ether-à-go-go-related gene (hERG) potassium channel (human, UniProt Q12809) (assay: primary screen, population patch clamp on CHO cells stably expressing hERG).
Chain of human ether-à-go-go-related gene (hERG) potassium channel (Q12809 whole entry, looked up): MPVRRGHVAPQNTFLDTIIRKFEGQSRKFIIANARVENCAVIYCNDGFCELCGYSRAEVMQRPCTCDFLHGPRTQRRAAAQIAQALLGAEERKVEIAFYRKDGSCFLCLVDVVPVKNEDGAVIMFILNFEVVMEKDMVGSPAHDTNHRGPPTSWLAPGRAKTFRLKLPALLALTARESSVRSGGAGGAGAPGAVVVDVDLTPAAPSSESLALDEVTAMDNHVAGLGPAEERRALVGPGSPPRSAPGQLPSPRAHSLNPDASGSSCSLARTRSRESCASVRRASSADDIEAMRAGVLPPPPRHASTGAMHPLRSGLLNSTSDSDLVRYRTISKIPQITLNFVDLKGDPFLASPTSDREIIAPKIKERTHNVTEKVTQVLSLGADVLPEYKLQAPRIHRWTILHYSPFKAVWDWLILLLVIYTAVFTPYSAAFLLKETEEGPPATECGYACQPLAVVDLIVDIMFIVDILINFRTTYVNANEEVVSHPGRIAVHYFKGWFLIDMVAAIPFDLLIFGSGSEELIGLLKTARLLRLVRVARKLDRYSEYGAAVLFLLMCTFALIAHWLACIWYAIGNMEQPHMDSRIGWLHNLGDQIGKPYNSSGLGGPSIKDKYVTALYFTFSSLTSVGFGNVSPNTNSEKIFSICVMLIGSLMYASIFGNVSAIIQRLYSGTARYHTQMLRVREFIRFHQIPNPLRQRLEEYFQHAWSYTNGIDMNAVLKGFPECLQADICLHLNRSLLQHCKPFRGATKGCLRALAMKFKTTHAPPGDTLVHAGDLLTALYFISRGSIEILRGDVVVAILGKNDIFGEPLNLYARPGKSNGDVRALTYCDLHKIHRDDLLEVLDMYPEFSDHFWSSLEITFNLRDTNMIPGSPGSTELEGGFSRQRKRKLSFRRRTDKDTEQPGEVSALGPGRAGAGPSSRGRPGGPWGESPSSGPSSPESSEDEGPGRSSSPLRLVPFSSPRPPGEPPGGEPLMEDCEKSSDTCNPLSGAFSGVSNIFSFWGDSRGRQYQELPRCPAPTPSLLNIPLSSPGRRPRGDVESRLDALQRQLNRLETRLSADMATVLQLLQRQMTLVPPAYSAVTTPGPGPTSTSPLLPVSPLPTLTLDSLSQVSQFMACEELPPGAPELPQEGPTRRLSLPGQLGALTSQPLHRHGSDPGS

Row | Compound | hERG current change (%, negative = inhibition) at 1uM
1 | Cc1ccc2c(c1)N(CC(=O)NCc1cccs1)C(=O)C(C)O2 (stereo not drawn) | 16.4%
2 | NC(=S)NNc1cccc2cccnc12 | 24.6%
3 | O=C(O)CCCC(=O)Nc1cccc(C(F)(F)F)c1 | 0.386%
4 | Cc1cc2oc(C(=O)Nc3nonc3C)c(C)c2cc1Cl | 19.7%
5 | Cc1nc2c(cc1NC(=O)c1ccccc1)nc(C)n2Cc1ccccc1 | 8.85%
6 | COc1cccc(NC(=S)/C(=C(\[O-])c2cc(C)n(-c3ccccc3F)c2C)[n+]2ccc(N(C)C)cc2)c1 | 12.4%
7 | COc1ccccc1NC(=O)CN1CC(=O)Nc2ccccc21 | 10.7%
8 | CCS(=O)(=O)NCCc1csc(C)n1 | 1.42%
9 | COc1ccc(C(=O)Nc2cccc(C(=O)N3CCN(C)CC3)c2)cc1 | 0.0352%
10 | CCc1nc(N2CCN(C(C)=O)CC2)c2c3c(sc2n1)CC(C(C)(C)C)CC3 (stereo not drawn) | 11.6%
11 | CN1C(=O)CC(C(=O)O)SC1=Nc1cc(Cl)cc(Cl)c1 (stereo not drawn) | 11.4%
12 | Cc1cc(N2CCCCCC2)nc(-c2ccccc2O)n1 | 10.4%
13 | CC(=O)Nc1cccc(C(=O)/C=C/c2ccc(N(C)C)cc2)c1 | 2.38%
14 | Cc1ccc(S(=O)(=O)Nc2ccc(-n3c(C)nc4ccccc4c3=O)cc2)cc1 | -7.86%
15 | COC(=O)CCC(=O)CN.Cl | 11.2%
16 | COc1ccccc1Cc1nc(-c2ccc(Br)o2)no1 | 12.7%
17 | O=C(Nc1ccc2c(c1)OCO2)c1ccc(S(=O)(=O)N2CCCC2)cc1 | 30.7%
18 | CN(C)/C=N/c1nc2nccc(-c3ccc(Cl)cc3)n2n1 | 16.4%
19 | CCOc1ccccc1N(C(=O)Nc1ccc(Cl)cc1)C1=NC(C)CS1 (stereo not drawn) | 10.1%
20 | COc1ccc(Cl)cc1N(CC(=O)N1CCCCCC1)S(C)(=O)=O | 14%
21 | COc1ccccc1CNC(=O)CSc1ccc(Br)cc1 | 12.1%
22 | Cc1nccc(-c2ccc(-n3c(C)ccc3C)cc2)n1 | 8.39%
23 | CC(=O)Nc1c(NC(C)(C)C)c2ccccc2oc1=O | 13.9%
24 | COC(=O)c1ccc(/C=N/NC(=O)CC(=O)NC(C)C)cc1 | 8.28%
25 | Cc1cc(N)n2ncc(-c3cccc(Br)c3)c2n1 | 1.71%
26 | O=C(CN1CCN(c2ccccc2F)CC1)Nc1ccccc1F | 8.33%
27 | CCN(CC)CCNCC(=O)Nc1ccc(Oc2ccccc2)cc1 | -21.2%
